Data: PubChem BioAssay AID1345083 (National Center for Advancing Translational Sciences (NCATS), 2018)
Hit rate of the full screen: of about 94,000 compounds, about 6,200 (6.6%) were called active. The shares of active, inactive and inconclusive entries below differ from those in the screen. The call rests on the fitted dose curve; in most records, active means well fitted inhibition curve with a large enough effect; inconclusive means small, poorly fitted or top-dose-only effect; inactive means flat fitted curve, though single readings scatter. Potencies beside an inconclusive call are fits to weak or partial responses and may not hold up.

experiment: Cytotoxic Profiling in HEK 293 Cell Line of Diverse Libraries Using Quantitative High-Throughput Screening; settings: HEK 293 viability, ATP luminescence (CellTiter-Glo), 48-72 h; series mostly up to 115 µM; further: nearly all actives have a fitted effect of over 60% in size
Method in brief: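 CellTiter-Glo luminescence (cellular ATP) was read after 48 or 72 hr of compound exposure at 37 degree Celsius. Cells were HEK 293 plated at 250 cells/well.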
Potency means the concentration at half of the fitted maximal effect; tags describe the fitted curve by direction and shape.

SMILES	Potency
COc1ccc(NC(=O)N2Cc3[nH]cnc3C[C@H]2c2nc(-c3ccc(F)c(Cl)c3)no2)cc1	inconclusive: 44.7 µM [inhibitor, partial curve, poor fit]
O=C(c1cccc(F)c1)N1CCC2(CC1)NC(=O)N(c1ccccc1Cl)N2	inconclusive: 22.4 µM [inhibitor, full curve]
Cc1oc2ccn(Cc3cccc(F)c3)c(=O)c2c1C(=O)NC1CCCC1	inconclusive: 44.7 µM [inhibitor, partial curve, poor fit]
O=C1Cc2c(-c3ccc(N4CCOCC4)cc3)n[nH]c2CN1CCc1ccncc1	inactive
CCc1nc2c(c(-c3ccc(Cl)cc3)n1)CN(Cc1ccc(C(F)(F)F)cc1)CC2	active: 89.1 µM
c1ccc(-c2noc(-c3ccccc3OC3CCNC3)n2)cc1 (centres undefined)	inconclusive: 22.4 µM [inhibitor, full curve, poor fit]
CCOc1cccc2c1OC[C@@H]1CN(CC)C(=O)CCN(C(=O)c3cccc(OC)c3)[C@H]21	inconclusive: 89.1 µM [inhibitor, single point]
COCCCN(CCC(=O)NCCc1ccccc1)C(=O)c1cc(C)oc1C	inconclusive: 56.2 µM [inhibitor, partial curve, poor fit]
CC(C)CCN1C(=O)N(CCCc2ccncc2)C(=O)C12CCN(CC1=CC[C@H]3C[C@@H]1C3(C)C)CC2	inactive
COc1ccc2[nH]c3c(c2c1)CCN(C)C31CCN(C(=O)c2ccc3ncccc3c2)CC1	inconclusive: 50.1 µM [inhibitor, partial curve, poor fit]
COc1ccc(NC(=O)c2ccc3c(c2)NC(C)(COc2ccccc2)CO3)cn1 (centres undefined)	inconclusive: 79.4 µM [inhibitor, partial curve, poor fit]
COc1cccc(N2C(=O)NC(=NC3CCCC3)C23CCCN(Cc2ccccc2)C3)c1 (centres undefined)	inconclusive: 50.1 µM [inhibitor, partial curve, poor fit]
COC(=O)CNC(=O)c1nc2cccnc2n(CCc2ccccc2)c1=O	inactive
Cc1cccc(S(=O)(=O)N2CCCC(Cn3c(C4CC4)nc4cccnc43)C2)c1 (centres undefined)	active: 35.5 µM
Cn1ccc2ccc(C(=O)Nc3ccc4c(c3)C(=O)N3CCC[C@H]3C(=O)N4)cc21	inconclusive: 50.1 µM [inhibitor, partial curve, poor fit]
CC(C)n1c(C2CCCN(C(=O)Cc3ccccc3)C2)nn(C)c1=O (centres undefined)	inconclusive: 6.31 µM [inhibitor, full curve, poor fit]
CCn1cc(CN2CCC(N3C(=O)C4(CCCCC4)C3c3ccncc3)CC2)c(C)n1 (centres undefined)	inconclusive: 89.1 µM [inhibitor, single point]
COc1cccc(CCC(=O)N2CC(c3noc(COc4ccc(C)cc4)n3)C2)c1	inconclusive: 79.4 µM [inhibitor, partial curve]
COc1ccc(CNC(=O)C2CCCN2Cc2cccc(-c3ccc(C)c(Cl)c3)c2)cc1 (centres undefined)	active: 35.5 µM
Cc1ccc(-c2ccccc2CN2CCN(C(=O)c3ccc(F)cc3)CC2)cc1Cl	inconclusive: 39.8 µM [inhibitor, partial curve, poor fit]
Fc1cccc(-c2cc(-c3cn[nH]c3)c3cncn3c2)c1	inconclusive: 100 µM [inhibitor, partial curve, poor fit]
Cc1ccc(CNC(=O)c2cc3cn(C(C)C)cc3s2)o1	inconclusive: 89.1 µM [inhibitor, single point]

SMILES	Potency
O=C(c1ccc(F)cc1)N1CCc2nc(C3CC3)nc(-c3ccc(O)cc3)c2C1	inconclusive: 79.4 µM [inhibitor, partial curve]
N[C@@H]1CN(c2ncccn2)C[C@H]1CO	inconclusive: 89.1 µM [inhibitor, single point]
O=C1CCN(Cc2ccncc2)CCCC(C(=O)NCc2ccc(F)cc2)CCN1 (centres undefined)	inactive
O=C(c1ccco1)N1CCC(Cc2nc(-c3ccccc3)no2)CC1	inconclusive: 50.1 µM [inhibitor, partial curve, poor fit]
CCN(CC)C(=O)N1CCCCCCNC(=O)[C@@H]2C[C@@H](c3nc(-c4cccnc4)no3)C[C@@H]21	inactive
O=C1Nc2ccc(-c3ccc4c(c3)OCO4)cc2C(=O)N2CCN(C(=O)C3CCCC3)C[C@@H]12	inconclusive: 50.1 µM [inhibitor, partial curve, poor fit]
O=C(Cc1ccc(F)cc1)NC1CCN(CCn2nc3n(c2=O)CCCC3)C1 (centres undefined)	inactive
COc1ccc(-c2nnc3n2CCN(C(=O)C2CC2)C3)cc1	inconclusive: 44.7 µM [inhibitor, partial curve, poor fit]
COc1cccc(C(=O)N2CCC3(CC2)N=C(c2ccc(Br)cc2)NO3)c1	inconclusive: 50.1 µM [inhibitor, partial curve, poor fit]
CN(C)C(=O)CNC(=O)c1cccc(-c2ccsc2)c1	inactive
CCN1C(=O)CCc2cc(NC(=O)c3ccc(OC)cc3C)ccc21	active: 70.8 µM
O=C(OCc1ccccc1)N1CCOCC12CCN(Cc1cccs1)CC2	inconclusive: 10 µM [inhibitor, full curve, poor fit]
Cc1ccc(-n2nc3n(c2=O)CCN(C(=O)c2ccccc2)C3)cc1	inconclusive: 50.1 µM [inhibitor, partial curve, poor fit]
O=C1CCCCC(Cc2ccccc2)(C(=O)Nc2cccnc2)N1 (centres undefined)	inactive
COc1ccc(OC)c(CN2CCNc3cnc(OCc4cccnc4)cc3C2)c1	inconclusive: 79.4 µM [inhibitor, partial curve, poor fit]
C#CCN(C)C(=O)C[C@@H]1c2nc(NC(=O)CCCCC)sc2C[C@@H]2[C@](C)(CO)[C@H](O)CC[C@]21C	inactive
Cn1nc(C2CCCC2)cc1NC(=O)c1ccc(F)cc1	inconclusive: 112 µM [inhibitor, partial curve, poor fit]
CCNC(=O)N1C[C@@H](Oc2ccccc2)C[C@@H]1C(=O)NCCOC	inactive
Cc1ccccc1NC(=O)CC(=O)N1CCC(Oc2ccccc2C)CC1	inconclusive: 56.2 µM [inhibitor, partial curve, poor fit]
Cc1n[nH]c(C)c1CNC(=O)CCC[C@H]1NC[C@@H]2C[C@H]1CN(Cc1ccccc1)C2	inactive
O=C(C[C@@H]1CCNC[C@@H]1Cc1cc(-c2ccccc2)on1)NCc1ccccc1	inconclusive: 79.4 µM [inhibitor, partial curve, poor fit]
N#Cc1ccc(CN2C3CCC2CN(C(=O)c2ccncc2)C3)cc1	inconclusive: 100 µM [inhibitor, partial curve, poor fit]

SMILES	Potency
COc1ccc(-c2cccc(C(=O)N3CCOCC3)c2)nn1	inactive
COc1ccccc1C(=O)N1CCC(N2C(=O)c3c(c(C)nn3-c3ccccc3)C2C2CC2)C1 (centres undefined)	active: 39.8 µM
CCCn1cc(C2CCN(S(=O)(=O)c3c(C)c(C)cc(C)c3C)CC2)c2ccccc21	inconclusive: 39.8 µM [inhibitor, single point]
O=C(O)c1ccc(CN2CCOC[C@H]2c2ncc(-c3ccc(Cl)s3)[nH]2)cc1	inactive
CC(C)Cn1c(=O)c(C(=O)N2CCC(c3ccccc3)CC2)nc2cccnc21	inconclusive: 79.4 µM [inhibitor, partial curve, poor fit]
COC(=O)[C@@H]1Cc2ncn(C)c2CN1C(=O)c1ccc(C#N)cc1	inactive
COc1ccc(NC(=O)N2CCc3c(C(=O)Nc4ccc5c(c4)OCO5)cccc32)cc1	inconclusive: 44.7 µM [inhibitor, partial curve, poor fit]
C[C@@H](NC(=O)NC(C)(C)C)c1onc(-c2ccc(Cl)cc2)c1C(=O)O	inactive
O=c1c2nc(OCc3ccc4c(c3)OCO4)ccc2ncn1-c1ccccc1	inconclusive: 100 µM [inhibitor, partial curve]
CC(C)S(=O)(=O)N1CCC2(CC1)CC(N1CCN(c3ccccn3)CC1)CCO2 (centres undefined)	inconclusive: 89.1 µM [inhibitor, single point]
O=C(NC1CCCN(CCn2nc3n(c2=O)CCCC3)C1)c1cccnc1 (centres undefined)	inactive
CN(Cc1cccnc1)Cc1nc(C2(O)CCN(C(=O)c3ccc(F)cc3)CC2)cs1	inconclusive: 50.1 µM [inhibitor, partial curve, poor fit]
Cn1ccnc1CN1C(=O)CO[C@H](c2ccc(NC(=O)Nc3ccccc3)cc2)[C@H]1CO	inactive
C=CCN(C)C(=O)[C@@H](C)C1CC[C@@]2(C)Cc3sc(NC(=O)C4CC4)nc3[C@@H](C)[C@@H]2[C@H]1O (some centres undefined)	inactive
O=C(CN1CC2CC(C1)[C@H]1CCCC(=O)N1C2)NCCCN1CCCCC1 (some centres undefined)	inactive
COc1cccc(CNC(=O)CN2CC3CC(C2)[C@H]2CCCC(=O)N2C3)c1 (some centres undefined)	inactive
O=C(N[C@H]1CCN2C(=O)c3ccc(Cl)cc3NC(=O)[C@H]12)c1cccc(F)c1	inconclusive: 126 µM [inhibitor, single point]
COc1cccc(-c2ccc(C(=O)NCCNC(=O)c3cccnc3)cc2)c1	inconclusive: 89.1 µM [inhibitor, single point]
Cc1cccc(CN(C(=O)c2ccco2)c2ccc(CC(=O)N(C)Cc3ccccc3)cc2)c1	inconclusive: 50.1 µM [inhibitor, partial curve, poor fit]
O=C(Cc1ccsc1)Nc1ccc2c(N3CCCC3)ncnc2c1	inconclusive: 79.4 µM [inhibitor, single point]
